Results: the supplement of paper PMC11876631
± gives the standard deviation of the averaged measurements. Laboratory Escherichia coli strains with one amino-acid change in an essential protein, pooled on minimal glucose agar with carbenicillin or gentamicin at twice the control MIC (plus kanamycin and chloramphenicol for the plasmids), 48 h. Fold change of barcode share against drug-free plates; higher = less susceptible. Active = above 20 in both replicates (the paper's putatively resistant). '<' = one read or none on drug, '>' = one read or none on a drug-free plate. Shares are relative, so most strains fall below 1 when a few take over. Listed are strains with at least 15 reads on both drug-free plates, and hits; most hits rest on fewer reference reads. Replicate rank correlation about 0.5. Edits are read from barcodes.

Molecular target: Escherichia coli (laboratory strain)
Experiment: barcode share on antibiotic plates over drug-free plates; higher = less susceptible
Procedure: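 A pool of E. coli strains, each edited to carry one amino-acid change in an essential protein, was grown for 48 h on minimal glucose agar with or without antibiotic; strain barcodes were sequenced; mean of two replicates.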

[1] = antibiotic: carbenicillin, 2× MIC (3.1 µg/mL)
[2] = antibiotic: gentamicin, 2× MIC (MIC 0.45 µg/mL)

B1: kdsB V5A (protein)
chain: MSFVAIIPARYASTRLPGKPLVDINGKPMIVHVLERARESGAERIIVATDHEDVARAVEAAGGEVCMTRADHQSGTERLAEVVEKCAFSDDTVIVNVQGDEPMIPATIIRQVADNLAQRQVGMATLAVPIHNAEEAFNPNAVKVVLDAEGYALYFSRATIPWDRDRFAEGLETVGDNFLRHLGIYGYRAGFIRRYVNWQPSPLEHIEMLEQLRVLWYGEKIHVAVAQEVPGTGVDTPEDLERVRAEMR
fold change of barcode share [1]: 0.178 ± 0.0075 | fold change of barcode share [2]: 0.004838 ± 1.1e-05

B2: kdsB V47A (protein)
chain: MSFVVIIPARYASTRLPGKPLVDINGKPMIVHVLERARESGAERIIAATDHEDVARAVEAAGGEVCMTRADHQSGTERLAEVVEKCAFSDDTVIVNVQGDEPMIPATIIRQVADNLAQRQVGMATLAVPIHNAEEAFNPNAVKVVLDAEGYALYFSRATIPWDRDRFAEGLETVGDNFLRHLGIYGYRAGFIRRYVNWQPSPLEHIEMLEQLRVLWYGEKIHVAVAQEVPGTGVDTPEDLERVRAEMR
fold change of barcode share [1]: 0.348 ± 0.21 | fold change of barcode share [2]: < 0.0126

B3: kdsB V5Q (protein)
chain: MSFVQIIPARYASTRLPGKPLVDINGKPMIVHVLERARESGAERIIVATDHEDVARAVEAAGGEVCMTRADHQSGTERLAEVVEKCAFSDDTVIVNVQGDEPMIPATIIRQVADNLAQRQVGMATLAVPIHNAEEAFNPNAVKVVLDAEGYALYFSRATIPWDRDRFAEGLETVGDNFLRHLGIYGYRAGFIRRYVNWQPSPLEHIEMLEQLRVLWYGEKIHVAVAQEVPGTGVDTPEDLERVRAEMR
fold change of barcode share [1]: 0.611 ± 0.086

B4: kdsB V5P (protein)
chain: MSFVPIIPARYASTRLPGKPLVDINGKPMIVHVLERARESGAERIIVATDHEDVARAVEAAGGEVCMTRADHQSGTERLAEVVEKCAFSDDTVIVNVQGDEPMIPATIIRQVADNLAQRQVGMATLAVPIHNAEEAFNPNAVKVVLDAEGYALYFSRATIPWDRDRFAEGLETVGDNFLRHLGIYGYRAGFIRRYVNWQPSPLEHIEMLEQLRVLWYGEKIHVAVAQEVPGTGVDTPEDLERVRAEMR
fold change of barcode share [1]: 0.277 ± 0.047 | fold change of barcode share [2]: 0.124 ± 0.15

B5: kdsB I94A (protein)
chain: MSFVVIIPARYASTRLPGKPLVDINGKPMIVHVLERARESGAERIIVATDHEDVARAVEAAGGEVCMTRADHQSGTERLAEVVEKCAFSDDTVAVNVQGDEPMIPATIIRQVADNLAQRQVGMATLAVPIHNAEEAFNPNAVKVVLDAEGYALYFSRATIPWDRDRFAEGLETVGDNFLRHLGIYGYRAGFIRRYVNWQPSPLEHIEMLEQLRVLWYGEKIHVAVAQEVPGTGVDTPEDLERVRAEMR
fold change of barcode share [1]: 0.43 ± 0.12 | fold change of barcode share [2]: < 0.00429

B6: kdsB V82A (protein)
chain: MSFVVIIPARYASTRLPGKPLVDINGKPMIVHVLERARESGAERIIVATDHEDVARAVEAAGGEVCMTRADHQSGTERLAEAVEKCAFSDDTVIVNVQGDEPMIPATIIRQVADNLAQRQVGMATLAVPIHNAEEAFNPNAVKVVLDAEGYALYFSRATIPWDRDRFAEGLETVGDNFLRHLGIYGYRAGFIRRYVNWQPSPLEHIEMLEQLRVLWYGEKIHVAVAQEVPGTGVDTPEDLERVRAEMR
fold change of barcode share [1]: 0.351 ± 0.056 | fold change of barcode share [2]: 0.00572 ± 0.005

B7: aroA L92A (protein)
chain: MESLTLQPIARVDGTINLPGSKSVSNRALLLAALAHGKTVLTNLLDSDDVRHMLNALTALGVSYTLSADRTRCEIIGNGGPLHAEGALELFAGNAGTAMRPLAAALCLGSNDIVLTGEPRMKERPIGHLVDALRLGGAKITYLEQENYPPLRLQGGFTGGNVDVDGSVSSQFLTALLMTAPLAPEDTVIRIKGDLVSKPYIDITLNLMKTFGVEIENQHYQQFVVKGGQSYQSPGTYLVEGDASSASYFLAAAAIKGGTVKVTGIGRNSMQGDIRFADVLEKMGATICWGDDYISCTRGELNAIDMDMNHIPDAAMTIATAALFAKGTTTLRNIYNWRVKETDRLFAMATELRKVGAEVEEGHDYIRITPPEKLNFAEIATYNDHRMAMCFSLVALSDTPVTILDPKCTAKTFPDYFEQLARISQAA
fold change of barcode share [1]: 0.536 ± 0.22 | fold change of barcode share [2]: < 0.012

B8: aroA F391A (protein)
chain: MESLTLQPIARVDGTINLPGSKSVSNRALLLAALAHGKTVLTNLLDSDDVRHMLNALTALGVSYTLSADRTRCEIIGNGGPLHAEGALELFLGNAGTAMRPLAAALCLGSNDIVLTGEPRMKERPIGHLVDALRLGGAKITYLEQENYPPLRLQGGFTGGNVDVDGSVSSQFLTALLMTAPLAPEDTVIRIKGDLVSKPYIDITLNLMKTFGVEIENQHYQQFVVKGGQSYQSPGTYLVEGDASSASYFLAAAAIKGGTVKVTGIGRNSMQGDIRFADVLEKMGATICWGDDYISCTRGELNAIDMDMNHIPDAAMTIATAALFAKGTTTLRNIYNWRVKETDRLFAMATELRKVGAEVEEGHDYIRITPPEKLNFAEIATYNDHRMAMCASLVALSDTPVTILDPKCTAKTFPDYFEQLARISQAA
fold change of barcode share [1]: 0.583 ± 0.14

B9: kdsA I112A (protein)
chain: MKQKVVSIGDINVANDLPFVLFGGMNVLESRDLAMRICEHYVTVTQKLGIPYVFKASFDKANRSSIHSYRGPGLEEGMKIFQELKQTFGVKIITDVHEPSQAQPVADVVDVAQLPAFLARQTDLVEAMAKTGAVINVKKPQFVSPGQMGNIVDKFKEGGNEKVILCDRGANFGYDNLVVDMLGFSIMKKVSGNSPVIFDVTHALQCRDPFGAASGGRRAQVAELARAGMAVGLAGLFIEAHPDPEHAKCDGPSALPLAKLEPFLKQMKAIDDLVKGFEELDTSK
fold change of barcode share [1]: 0.322 ± 0.019

B10: kdsA I112Q (protein)
chain: MKQKVVSIGDINVANDLPFVLFGGMNVLESRDLAMRICEHYVTVTQKLGIPYVFKASFDKANRSSIHSYRGPGLEEGMKIFQELKQTFGVKIITDVHEPSQAQPVADVVDVQQLPAFLARQTDLVEAMAKTGAVINVKKPQFVSPGQMGNIVDKFKEGGNEKVILCDRGANFGYDNLVVDMLGFSIMKKVSGNSPVIFDVTHALQCRDPFGAASGGRRAQVAELARAGMAVGLAGLFIEAHPDPEHAKCDGPSALPLAKLEPFLKQMKAIDDLVKGFEELDTSK
fold change of barcode share [1]: 0.286 ± 0.095 | fold change of barcode share [2]: < 0.00373

B11: kdsA V200P (protein)
chain: MKQKVVSIGDINVANDLPFVLFGGMNVLESRDLAMRICEHYVTVTQKLGIPYVFKASFDKANRSSIHSYRGPGLEEGMKIFQELKQTFGVKIITDVHEPSQAQPVADVVDVIQLPAFLARQTDLVEAMAKTGAVINVKKPQFVSPGQMGNIVDKFKEGGNEKVILCDRGANFGYDNLVVDMLGFSIMKKVSGNSPVIFDPTHALQCRDPFGAASGGRRAQVAELARAGMAVGLAGLFIEAHPDPEHAKCDGPSALPLAKLEPFLKQMKAIDDLVKGFEELDTSK
fold change of barcode share [1]: 0.228 ± 0.057

B12: kdsA V96A (protein)
chain: MKQKVVSIGDINVANDLPFVLFGGMNVLESRDLAMRICEHYVTVTQKLGIPYVFKASFDKANRSSIHSYRGPGLEEGMKIFQELKQTFGVKIITDAHEPSQAQPVADVVDVIQLPAFLARQTDLVEAMAKTGAVINVKKPQFVSPGQMGNIVDKFKEGGNEKVILCDRGANFGYDNLVVDMLGFSIMKKVSGNSPVIFDVTHALQCRDPFGAASGGRRAQVAELARAGMAVGLAGLFIEAHPDPEHAKCDGPSALPLAKLEPFLKQMKAIDDLVKGFEELDTSK
fold change of barcode share [1]: 0.467 ± 0.36 | fold change of barcode share [2]: < 0.00679

B13: ispG L227Q (protein)
chain: MHNQAPIQRRKSTRIYVGNVPIGDGAPIAVQSMTNTRTTDVEATVNQIKALERVGADIVRVSVPTMDAAEAFKLIKQQVNVPLVADIHFDYRIALKVAEYGVDCLRINPGNIGNEERIRMVVDCARDKNIPIRIGVNAGSLEKDLQEKYGEPTPQALLESAMRHVDHLDRLNFDQFKVSVKASDVFLAVESYRLLAKQIDQPLHLGITEAGGARSGAVKSAIGLGLQLSEGIGDTLRVSLAADPVEEIKVGFDILKSLRIRSRGINFIACPTCSRQEFDVIGTVNALEQRLEDIITPMDVSIIGCVVNGPGEALVSTLGVTGGNKKSGLYEDGVRKDRLDNNDMIDQLEARIRAKASQLDEARRIDVQQVEK
fold change of barcode share [1]: 0.523 ± 0.2 | fold change of barcode share [2]: 0.0171 ± 0.015

B14: ispG L227D (protein)
chain: MHNQAPIQRRKSTRIYVGNVPIGDGAPIAVQSMTNTRTTDVEATVNQIKALERVGADIVRVSVPTMDAAEAFKLIKQQVNVPLVADIHFDYRIALKVAEYGVDCLRINPGNIGNEERIRMVVDCARDKNIPIRIGVNAGSLEKDLQEKYGEPTPQALLESAMRHVDHLDRLNFDQFKVSVKASDVFLAVESYRLLAKQIDQPLHLGITEAGGARSGAVKSAIGLGLDLSEGIGDTLRVSLAADPVEEIKVGFDILKSLRIRSRGINFIACPTCSRQEFDVIGTVNALEQRLEDIITPMDVSIIGCVVNGPGEALVSTLGVTGGNKKSGLYEDGVRKDRLDNNDMIDQLEARIRAKASQLDEARRIDVQQVEK
fold change of barcode share [1]: 0.258 ± 0.015 | fold change of barcode share [2]: < 0.0102

B15: ispG L227P (protein)
chain: MHNQAPIQRRKSTRIYVGNVPIGDGAPIAVQSMTNTRTTDVEATVNQIKALERVGADIVRVSVPTMDAAEAFKLIKQQVNVPLVADIHFDYRIALKVAEYGVDCLRINPGNIGNEERIRMVVDCARDKNIPIRIGVNAGSLEKDLQEKYGEPTPQALLESAMRHVDHLDRLNFDQFKVSVKASDVFLAVESYRLLAKQIDQPLHLGITEAGGARSGAVKSAIGLGLPLSEGIGDTLRVSLAADPVEEIKVGFDILKSLRIRSRGINFIACPTCSRQEFDVIGTVNALEQRLEDIITPMDVSIIGCVVNGPGEALVSTLGVTGGNKKSGLYEDGVRKDRLDNNDMIDQLEARIRAKASQLDEARRIDVQQVEK
fold change of barcode share [1]: 0.538 ± 0.23 | fold change of barcode share [2]: 0.0549 ± 0.073
